This is an account of results in publication PMC6919601, “Identification of Plasmodium dipeptidyl aminopeptidase allosteric inhibitors by high throughput screening” (PLoS ONE, 2019).

Among all 110,000 compounds or so, about 230 (0.21%) showed an effect of 50% or more. This is one part of the list.
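Also: 30 min substrate incubation versus DMSO and 10 µM JCP410 controls.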

The experiment deals with DPAP1 (Plasmodium falciparum, UniProt Q8IIJ9). Put plainly: primary screen, percent inhibition; read by cleavage of a fluorogenic dipeptide substrate; higher = more effect of the substance. Details: species or system P. falciparum D10 trophozoite lysates; single well.
Sequence of DPAP1 (Q8IIJ9 whole entry, looked up): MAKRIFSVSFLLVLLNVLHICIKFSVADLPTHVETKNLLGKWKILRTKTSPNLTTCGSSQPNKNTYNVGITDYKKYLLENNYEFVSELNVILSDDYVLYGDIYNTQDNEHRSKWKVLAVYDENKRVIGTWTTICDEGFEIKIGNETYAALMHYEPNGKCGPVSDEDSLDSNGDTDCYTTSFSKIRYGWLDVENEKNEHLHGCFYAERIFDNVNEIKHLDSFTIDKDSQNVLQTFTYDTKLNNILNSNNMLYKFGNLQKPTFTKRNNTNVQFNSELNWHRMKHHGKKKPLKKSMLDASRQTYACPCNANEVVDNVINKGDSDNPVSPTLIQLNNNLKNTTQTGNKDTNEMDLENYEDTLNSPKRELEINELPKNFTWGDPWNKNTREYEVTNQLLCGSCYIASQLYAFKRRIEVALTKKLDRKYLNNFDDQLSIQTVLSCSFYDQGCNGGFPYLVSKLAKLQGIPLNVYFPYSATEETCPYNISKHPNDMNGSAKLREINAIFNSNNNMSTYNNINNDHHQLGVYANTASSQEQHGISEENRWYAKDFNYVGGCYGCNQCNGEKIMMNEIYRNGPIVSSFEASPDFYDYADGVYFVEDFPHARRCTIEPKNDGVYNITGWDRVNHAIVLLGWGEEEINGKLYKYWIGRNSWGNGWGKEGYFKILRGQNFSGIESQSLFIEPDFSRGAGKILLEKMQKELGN
With `CC(C)(C)c1ccc(-c2nnc(SCC(=O)NCC3CCCO3)n2-c2ccccc2)cc1` (stereo not drawn), the “% Inhibition @ 10 uM” value is on record as -4.48%. The value for `OC(COc1ccc(Cl)cc1)CN1CCCCC1` (stereo not drawn) was 3.44%; that for `CC(C)(C)C(=O)Nc1ccc(C(=O)Nc2cccnc2)cc1` was -2.75%.

For `CCCCN(C(=S)SC)C1CCS(=O)(=O)C1` (stereo not drawn), the “% Inhibition @ 10 uM” value is 3.7%. The result for `CN(C)CCCN(CCCN(C)C)Cc1cccnc1` reads 1.62%; that for `COc1ccc(-c2oc3ncnc(NCCN4CCOCC4)c3c2-c2ccc(OC)cc2)cc1`, -1.05%.

On to `COc1ccc(C2=NOC(CN3C(=O)c4ccccc4S3(=O)=O)C2)cc1` (stereo not drawn), for which the “% Inhibition @ 10 uM” value amounted to 0.221%. The result for `N#CC1=C(N)SC(N)=C(C#N)C1c1ccc(Cl)c(Cl)c1` reads 40.5%. The value for `CC(=O)N1C(NCc2ccccc2)CC(C)N1c1ccccc1` (stereo not drawn) was 1.1%. The value for `CC(C)C[C@H](NC(=O)c1cc(C(C)(C)C)c(O)c(C(C)(C)C)c1)C(=O)NCC#N` was -12.7%. Regarding `Cc1ccc(N/C=C(\C#N)C(=O)NC(=O)Cc2ccccc2)cc1`, the “% Inhibition @ 10 uM” value was determined as 0.687%.

On to `CCN1CCN(c2nc(-c3ccccc3O)nc3ccccc23)CC1`, for which the “% Inhibition @ 10 uM” value is 0.528%. The value for `CC1CN(c2ccccc2Br)NC1=O` (stereo not drawn) was -0.0217%; that for `CCOc1nc(NC(=O)NC(=O)c2cccc(F)c2)nc(-c2ccccc2)n1` was 3.53%. The result for `CNS(=O)(=O)c1cc(-c2nnc(O)c3ccccc23)ccc1C` reads -5.28%; that for `O=C(CSc1nc2ccccc2s1)Nc1ccc(Br)cn1`, 4.33%; that for `CN1C2CCC1CC(=NOC(=O)c1ccc(F)cc1)C2`, -3.21%. For `COc1ccc(CC(=O)NC(c2ccccc2)c2ccccc2)cc1`, the “% Inhibition @ 10 uM” value was found to be 0.135%. The result for `O=C(c1ccccc1)c1ccc2nc(N3CCN(c4ccccn4)CC3)c3nncn3c2c1` reads -7.91%; that for `CC1CC(C)CN(CCCNC(=O)Cn2ncc3ccc(Cl)cc32)C1` (stereo not drawn), -2.88%; that for `c1ccc(-c2nnn3c2nc(NCc2ccc4c(c2)OCO4)c2ccccc23)cc1`, -2.92%.

As for `Cc1cc(Br)ccc1NC(=O)C1CC(=O)N(c2ccc(F)cc2)C1` (stereo not drawn), the “% Inhibition @ 10 uM” value is -1.92%. For the compound `O=[N+]([O-])c1cccc(CN2CCN(c3ccc(Cl)cc3)CC2)c1`, the “% Inhibition @ 10 uM” value is given as -0.0404%. The result for `CCC1CCCCN1C(=O)c1ccccc1NC(=O)c1ccco1` (stereo not drawn) reads -3.09%; that for `N=c1n(CC(=O)O)c2ccccc2n1Cc1ccccc1`, 0.992%. The value for `C=CCN(Cc1ccccc1F)C(=O)Nc1cccc(Cl)c1` was -7.99%. The value for `O=C(COc1ccc2ccccc2c1Br)N1CCCCC1` was -2.8%; that for `Cc1cc(C)c2c(N)c(C(=O)Nc3ccc(F)c(Cl)c3)sc2n1` was 4.08%; that for `COc1cccc(/C=c2\sc3nc(-c4ccccc4C)nn3c2=O)c1` was -3.21%. Take `COc1ccc(Cl)cc1-c1nc(-c2cccc(C)c2)no1`: the “% Inhibition @ 10 uM” value was -10%. The value for `COc1ccc(-c2noc(NCCc3ccc(S(N)(=O)=O)cc3)n2)cc1OC` was 9.25%. The result for `CCc1ccc(CNC(=O)C2CCN(c3ncnc4c3nc3n4CCCCC3)CC2)cc1` reads 3.27%; that for `CCOc1cc(C2c3c(oc4ccccc4c3=O)C(=O)N2Cc2ccccc2)ccc1O` (stereo not drawn), 5.3%; that for `COc1ccc2[nH]c3c(=O)n(CCC(=O)NCCC(C)C)c(=S)[nH]c3c2c1`, 1.15%. The value for `Cc1ccc(-c2[nH]nc3c2C(c2ccccc2F)C(C#N)=C(N)O3)cc1` (stereo not drawn) was -4.65%; that for `CCN(CC)C(=O)C(C)N(C#N)c1nc(N(C)C)nc(N(C)C)n1` (stereo not drawn) was 0.746%; that for `CCOc1ccc(CCNCc2ccc(C(=O)O)s2)cc1OCC` was -7.93%. On to `COc1cc(OC)c(/C=C2/NC(=O)NC2=O)cc1Br`, for which the “% Inhibition @ 10 uM” value was 7.76%.

Consider `CCCCOc1ccc(CN2CCCCC2CC)cc1` (stereo not drawn), for which the “% Inhibition @ 10 uM” value is -4.14%. The result for `Cc1ccc(C=C2C(=O)OC(C)(C)OC2=O)o1` reads -7.23%; that for `CC(CNCc1c(C(=O)O)n(Cc2ccccc2F)c2ccccc12)c1ccccc1` (stereo not drawn), -1.65%.

As for `CCOC(=O)CSc1nc(O)cc(OC)n1`, the “% Inhibition @ 10 uM” value is -0.712%. The result for `COc1cc2nc(NCc3ccc(F)cc3)n3nc(-c4ccccc4)nc3c2cc1OC` reads -0.692%.

Consider `Cc1ccc(C)c(S(=O)(=O)NCc2ccc(C(=O)N3CC(C)OC(C)C3)cc2)c1` (stereo not drawn), for which the “% Inhibition @ 10 uM” value is -3.08%.

In the case of `COc1cccc(C2=Nn3c(nnc3C(F)(F)F)SC2)c1`, the “% Inhibition @ 10 uM” value was -6.25%. For `C=CCn1c(SCC(=O)NCCN2CCOCC2)nc2sc3c(c2c1=O)CCCC3`, the “% Inhibition @ 10 uM” value was found to be 1.02%. The result for `O=S(=O)(NCCC1=CCCCC1)c1ccc(-c2ccc(O)nn2)s1` reads 0.182%; that for `Cc1ccc(C)c(NC(=O)CCCC(=O)Nc2cc(C)ccc2C)c1`, 6.24%; that for `COc1cc(C(=O)N2CCN(C(=O)c3cc(OC)c(OC)c(OC)c3)CC2)cc(OC)c1OC`, -1.61%. The value for `COc1cc(CNc2nc[nH]n2)ccc1OCC(=O)NC1CCCCC1` was 2.48%; that for `N#CC1=C(N)OC2=C(C(=O)CCC2)C1c1ccc(F)c(Br)c1` (stereo not drawn) was -3.13%.
